Among all 340,000 compounds or so, about 12,000 (3.5%) were called active. Inconclusive means that the source gave no clear call. Such entries were picked first, then a sample of the others. Calls follow the shape of the dose curve; as a rule, active = well fitted inhibition curve with a large enough effect; inconclusive = small, poorly fitted or top-dose-only effect, or another doubt; inactive = no such curve, though single readings can be large or run the other way. Potencies of inconclusive entries are left out as doubtful fits.
Assay: qHTS Assay for Inhibitors of Hepatitis C Virus (HCV)
Conditions: Huh7.5.1 HCVcc-Cre (HCVcc is cell-culture hepatitis C virus) infection, luciferase reporter, 44 h; activity change, negative = inhibition: at 41.8 µM (top of the series) unless noted
In short: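 1,000 cells/well; 4 h culture; + compound; + HCVcc-Cre (~0.5 moi); 44 h; luciferase substrate, RT 15 min; read 15 sec.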
With `Cc1ccccc1-c1ncc(CN2CCC(CO)(CCCc3ccccc3)CC2)cn1` the Potency was inconclusive [inhibitor, single point].
In the case of `O=C(CCCn1c(=S)[nH]c2cc3c(cc2c1=O)OCO3)NC1CC1`, the Potency is reported as inconclusive [inhibitor, single point].
With `CCCCn1c(=O)c(C(=O)Nc2ccccc2S(N)(=O)=O)c(O)c2ccccc21` the Potency was inconclusive [inhibitor, full curve].
In the case of `CC1CC(=O)Nc2ccccc2N1C(=O)CSc1ccc2ccccc2n1` (stereo unspecified), the Potency is reported as inconclusive [inhibitor, full curve, poor fit].
With `CCCOc1ccc(C2Nc3cccc4cccc(c34)N2)cc1` the Potency was inconclusive [inhibitor, single point].
For `COc1ccc(OC)c(C(=O)c2c(C)oc3cc([N+](=O)[O-])c(O)c([N+](=O)[O-])c23)c1`, the Potency was inconclusive [inhibitor, single point].
With `Cc1cc(C)cc(-c2nnc(SCC(=O)N3CCN(C(=O)c4ccco4)CC3)o2)c1` the Potency was inconclusive [inhibitor, partial curve].
In the case of `Cc1ccc(Nc2nc(N)c([N+](=O)[O-])c(NCc3ccco3)n2)cc1C`, the Potency is reported as inconclusive [inhibitor, partial curve].
In the case of `CCC(=O)NC(=S)Nc1ccc(NC(=O)c2ccc(OC)cc2)cc1`, the “activity change, negative = inhibition” value is reported as inactive: -27.1%.
In the case of `C=CCSc1nc2ccccc2n1S(=O)(=O)c1ccc(C)cc1`, the “activity change, negative = inhibition” value is reported as inactive: 2.06%.
With `CCOc1ccc(-c2n[nH]c(C)c2Oc2ccccc2OC)c(O)c1` the Potency was inconclusive [inhibitor, partial curve].
With `CCCN(CCC)CCNC(=O)c1cc2c(-c3ccc(Cl)cc3)nn(C)c2s1` the Potency was active: 8.91 µM.
For `CCOc1ccccc1N1CC(C(=O)N(Cc2nnc(-c3ccccc3Cl)o2)C2CC2)CC1=O` (stereo unspecified), the “activity change, negative = inhibition” value was inactive: -3.03%.
In the case of `CCOc1ccc2nc(NC(=O)CSc3nc4c(c(=O)n(C)c(=O)n4C)n3C(C)C)sc2c1`, the Potency is reported as inconclusive [inhibitor, full curve].
In the case of `CC1(C)Cc2c(C#N)c(N3CCN(C(=O)c4ccccc4Cl)CC3)nc(-c3ccco3)c2CS1`, the Potency is reported as inconclusive [inhibitor, single point].
With `CC(=O)c1ccccc1NC(=O)CN1C(=O)CS/C1=C\c1nc(-c2ccc(C)cc2)cs1` the Potency was inconclusive [inhibitor, partial curve].
With `O=C(Cc1cccc(NC(=O)C2CCN(S(=O)(=O)c3cccc([N+](=O)[O-])c3)CC2)c1)Nc1cccc(C(=O)N2CCCCC2)c1` the Potency was inconclusive [inhibitor, single point].
With `O=C(c1cccc(S(=O)(=O)N2CCCCC2)c1)N1CCN(S(=O)(=O)c2ccc(F)cc2)CC1` the “activity change, negative = inhibition” value was inactive: -24.7%.
For `O=S(=O)(c1ccccc1)N1CCN=C1SCc1cccc(Cl)c1`, the Potency was inconclusive [inhibitor, single point].
With `COCCNC(=O)C(c1ccc(C)cc1)N(C(=O)CCC(=O)Nc1ccccn1)c1ccccc1C` (stereo unspecified) the “activity change, negative = inhibition” value was inactive: -15.1%.
In the case of `Cc1ccc(CNC(=O)CS(=O)(=O)Cc2nc(-c3ccccc3F)oc2C)cc1`, the “activity change, negative = inhibition” value is reported as inactive: -3.2%.
In the case of `CCOC(=O)C1=C(C)NC(C)=C(C(=O)OCC)C1/C=C/c1ccccc1OC`, the Potency is reported as inconclusive [inhibitor, partial curve].
In the case of `CCC(C)[C@H](NC(=O)NCCCOC(C)C)C(=O)OC` (stereo partly specified), the “activity change, negative = inhibition” value is reported as inactive: 6.39%.
In the case of `O=C(Cc1cccs1)N1CCN=C1SCc1ccccc1F`, the Potency is reported as inconclusive [inhibitor, single point].
In the case of `CC(C)NC(=O)CSc1nc(-c2cccs2)cc(-c2ccccc2)c1C#N`, the Potency is reported as inconclusive [inhibitor, partial curve, poor fit].
For `COc1ccc(-c2c(-c3ccc(S(C)(=O)=O)cc3)sc3ccc(OC)cc23)cc1`, the Potency was inconclusive [inhibitor, partial curve].
In the case of `COc1ccc(C(=O)OCCN2C(=O)c3ccccc3C2=O)cc1`, the “activity change, negative = inhibition” value is reported as inactive: 5.34%.
In the case of `N#Cc1cc(C#N)c(N2CCN(c3cccc(Cl)n3)CC2)nc1N`, the Potency is reported as active: 11.2 µM.
With `Cc1ccc(C(C(=O)NC(C)(C)C)N(Cc2ccccc2)C(=O)c2snc(C(N)=O)c2N)o1` (stereo unspecified) the Potency was inconclusive [inhibitor, full curve, poor fit].
In the case of `CC(NC(=O)C(C)N1CCN(S(=O)(=O)c2ccccc2)CC1)c1ccccc1` (stereo unspecified), the “activity change, negative = inhibition” value is reported as inactive: -20.1%.
In the case of `O=C(c1ccco1)N1CCN(c2ncnc3scc(-c4ccccc4)c23)CC1`, the Potency is reported as inconclusive [inhibitor, partial curve, poor fit].
For `Cc1ccc(NC(=O)CCNC(=O)c2ccccc2Cl)cc1S(=O)(=O)N1CCOCC1`, the “activity change, negative = inhibition” value was inactive: 4.07%.
In the case of `Cc1ccc(NS(=O)(=O)c2ccc(C(=O)N3CCN(c4ccccn4)CC3)cc2)cc1`, the Potency is reported as inconclusive [inhibitor, partial curve].
With `Cc1cccc(NC(=O)CSc2ccc(-c3cccnc3)nn2)c1` the Potency was inconclusive [inhibitor, single point].
In the case of `CC(Sc1nc(-c2ccccc2)cc(C(F)(F)F)n1)C(=O)Nc1sc2c(c1C#N)CCC2` (stereo unspecified), the Potency is reported as inconclusive [inhibitor, partial curve].
For `CC1C(=O)C(C)C(c2cc(Cl)ccc2O)NC1c1cc(Cl)ccc1O` (stereo unspecified), the Potency was inconclusive [inhibitor, single point].
With `C[C@H](/C=C/[C@@]1(O)[C@H](C)C[C@H](O)CC1(C)C)O[C@@H]1O[C@H](CO)[C@@H](O)[C@H](O)[C@H]1O` the Potency was inconclusive [inhibitor, partial curve].
In the case of `CCN(CC)c1ccc(/C=N/n2c(C)nc3ccccc3c2=O)cc1`, the Potency is reported as inconclusive [inhibitor, single point].
With `Cc1ccc(C(=O)NCC(=O)OCC(=O)c2ccccc2)s1` the “activity change, negative = inhibition” value was inactive: -1.57%.
For `CCOc1ccccc1N(CC(=O)NC1CCCCC1)C(=O)CCCC(=O)Nc1ccccn1`, the Potency was inconclusive [inhibitor, partial curve].
With `C[C@H]1CN=C(N(C)C)N1CCCC1CCCCC1` the Potency was inconclusive [inhibitor, partial curve].
% is scaled to controls: 0 for no effect and ±100 for the full control effect; potency is read from the fitted curve at half-maximal effect; tags tell the direction and shape of the fitted curve.
